In patent publication US20240197902A1 (ACCELERON PHARMA, published 2024):
Each block holds one binder with its values, some of them ahead of it.

Columns and labels:
activin A [1] = biological target: T1, activin A (UniProt P08476 311-426); experiment: cell-based or functional assay
T1 sequence (looked up): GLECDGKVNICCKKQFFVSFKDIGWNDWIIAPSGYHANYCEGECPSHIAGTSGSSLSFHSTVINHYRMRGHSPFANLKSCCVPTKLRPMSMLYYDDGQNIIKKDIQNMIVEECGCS

BMP10 [2] = biological target: T2, BMP10 (UniProt O95393 317-424); experiment: cell-based or functional assay
T2 sequence (looked up): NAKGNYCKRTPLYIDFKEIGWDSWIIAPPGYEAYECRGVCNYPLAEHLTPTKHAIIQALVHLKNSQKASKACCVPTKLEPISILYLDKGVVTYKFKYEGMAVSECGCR

activin B [3] = biological target: T3, activin B (UniProt P09529 293-407); experiment: cell-based or functional assay
T3 sequence (looked up): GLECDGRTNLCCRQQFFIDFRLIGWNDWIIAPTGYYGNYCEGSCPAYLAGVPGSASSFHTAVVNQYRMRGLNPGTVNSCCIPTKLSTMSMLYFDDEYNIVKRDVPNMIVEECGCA

GDF11 [4] = biological target: T4, GDF11 (UniProt O95390 299-407); experiment: cell-based or functional assay
T4 sequence (looked up): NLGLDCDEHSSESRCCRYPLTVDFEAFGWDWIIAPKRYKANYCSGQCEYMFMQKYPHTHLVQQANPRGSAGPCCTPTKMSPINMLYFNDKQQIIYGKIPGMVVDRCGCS

activin A [5] = biological target: T1, activin A; experiment: SPR (Biacore), Fc fusion captured by anti-Fc antibody
BMP9 [6] = biological target: T5, BMP9 (UniProt Q9UK05 320-429); experiment: as above
T5 construct: also called GDF2
T5 sequence (looked up): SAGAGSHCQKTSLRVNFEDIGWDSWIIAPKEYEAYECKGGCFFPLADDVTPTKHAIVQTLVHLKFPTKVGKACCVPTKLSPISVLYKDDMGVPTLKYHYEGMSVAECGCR

BMP10 [7] = biological target: T2, BMP10; experiment: as above
activin B [8] = biological target: T3, activin B; experiment: as above
activin AC = biological target: T6, activin AC (UniProt P08476 311-426; P55103 237-352); experiment: as above
T6 construct: Heterodimer of beta A and beta C subunits
T6 sequence (looked up) 1: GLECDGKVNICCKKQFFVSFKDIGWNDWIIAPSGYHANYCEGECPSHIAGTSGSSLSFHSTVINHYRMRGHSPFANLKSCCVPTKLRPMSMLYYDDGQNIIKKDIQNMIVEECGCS
T6 sequence (looked up) 2: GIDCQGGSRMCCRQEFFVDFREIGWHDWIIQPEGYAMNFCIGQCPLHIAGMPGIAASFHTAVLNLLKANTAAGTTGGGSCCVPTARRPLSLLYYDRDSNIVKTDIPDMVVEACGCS

GDF3 [9] = biological target: T7, GDF3 (UniProt Q9NR23 251-364); experiment: as above
T7 sequence (looked up): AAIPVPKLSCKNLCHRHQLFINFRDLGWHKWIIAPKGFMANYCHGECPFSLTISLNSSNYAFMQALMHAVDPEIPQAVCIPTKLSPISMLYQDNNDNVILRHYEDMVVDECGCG

GDF8 [10] = biological target: T8, GDF8 (UniProt O14793 267-375); experiment: as above
T8 construct: also called myostatin
T8 sequence (looked up): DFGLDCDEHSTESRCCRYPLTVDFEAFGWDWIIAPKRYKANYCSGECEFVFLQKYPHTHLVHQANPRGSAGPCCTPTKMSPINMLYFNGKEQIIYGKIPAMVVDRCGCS

GDF11 [11] = biological target: T4, GDF11; experiment: as above
BMP5 = biological target: T9, BMP5 (UniProt P22003 317-454, limits assumed); experiment: as above
T9 sequence (looked up): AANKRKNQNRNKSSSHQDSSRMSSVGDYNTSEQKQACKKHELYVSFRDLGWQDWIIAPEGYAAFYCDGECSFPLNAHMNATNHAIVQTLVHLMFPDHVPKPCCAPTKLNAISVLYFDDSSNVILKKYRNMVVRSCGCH

BMP6 [12] = biological target: T10, BMP6 (UniProt P22004 375-513, limits assumed); experiment: as above
T10 sequence (looked up): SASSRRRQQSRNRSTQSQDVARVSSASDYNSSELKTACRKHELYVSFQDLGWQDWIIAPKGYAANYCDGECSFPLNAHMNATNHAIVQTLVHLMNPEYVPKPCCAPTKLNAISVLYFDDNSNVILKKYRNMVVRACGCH

activin A [13] = biological target: T1, activin A; experiment: SPR (Biacore), Fc fusion captured by anti-Fc antibody, 37 C
BMP9 [14] = biological target: T5, BMP9; experiment: as above
BMP10 [15] = biological target: T2, BMP10; experiment: as above
activin B [16] = biological target: T3, activin B; experiment: as above
GDF3 [17] = biological target: T7, GDF3; experiment: as above
GDF8 [18] = biological target: T8, GDF8; experiment: as above
GDF11 [19] = biological target: T4, GDF11; experiment: as above
BMP6 [20] = biological target: T10, BMP6; experiment: as above
GDF8 [21] = biological target: T8, GDF8; experiment: cell-based or functional assay

IC50, A204 CAGA12 reporter gene assay (activin A [1]): > 100 nM | IC50, A204 CAGA12 reporter gene assay (BMP10 [2]): > 100 nM | IC50, A204 CAGA12 reporter gene assay (activin B [3]): 0.15 nM | IC50, A204 CAGA12 reporter gene assay (GDF11 [4]): 0.36 nM
B1: ActRIIB(L79H-F82I)-G1Fc (Fc fusion)
chain: GRGEAETRECIYYNANWELERTNQSGLERCEGEQDKRLHCYASWRNSSGTIELVKKGCWHDDINCYDRQECVATEENPQVYFCCCEGNFCNERFTHLPEAGGPEVTYEPPPTAPTG[gap - human IgG1 Fc and a few adjoining residues]
modifications: Homodimeric Fc fusion; one copy of the chain given

Kd (activin A [5]): 0.011 nM | koff (activin A [5]): 0.00014 s⁻¹ | kon (activin A [5]): 1.3e+07 M⁻¹ s⁻¹ | Kd (BMP9 [6]): 0.01 nM | koff (BMP9 [6]): 0.0012 s⁻¹ | kon (BMP9 [6]): 1.2e+08 M⁻¹ s⁻¹ | Kd (BMP10 [7]): 0.025 nM | koff (BMP10 [7]): 0.00015 s⁻¹ | kon (BMP10 [7]): 5.9e+06 M⁻¹ s⁻¹ | Kd (activin B [8]): 0.008 nM | koff (activin B [8]): 0.00016 s⁻¹ | kon (activin B [8]): 1.5e+07 M⁻¹ s⁻¹ | Kd (activin AC): 0.16 nM | koff (activin AC): 0.0031 s⁻¹ | kon (activin AC): 2e+07 M⁻¹ s⁻¹ | Kd (GDF3 [9]): 1.5 nM | koff (GDF3 [9]): 0.0022 s⁻¹ | kon (GDF3 [9]): 1.4e+06 M⁻¹ s⁻¹ | Kd (GDF8 [10]): 0.069 nM | koff (GDF8 [10]): 0.00024 s⁻¹ | kon (GDF8 [10]): 3.5e+06 M⁻¹ s⁻¹ | Kd (GDF11 [11]): 0.002 nM | koff (GDF11 [11]): 0.00015 s⁻¹ | kon (GDF11 [11]): 9.6e+07 M⁻¹ s⁻¹ | Kd (BMP5): 2.9 nM | koff (BMP5): 0.075 s⁻¹ | kon (BMP5): 2.6e+07 M⁻¹ s⁻¹ | Kd (BMP6 [12]): 0.16 nM | koff (BMP6 [12]): 0.0039 s⁻¹ | kon (BMP6 [12]): 2.4e+07 M⁻¹ s⁻¹ | Kd (activin A [13]): 0.025 nM | koff (activin A [13]): 0.00019 s⁻¹ | kon (activin A [13]): 7.4e+06 M⁻¹ s⁻¹ | Kd (BMP9 [14]): 0.25 nM | koff (BMP9 [14]): 0.0013 s⁻¹ | kon (BMP9 [14]): 5e+06 M⁻¹ s⁻¹ | Kd (BMP10 [15]): 0.004 nM | koff (BMP10 [15]): 0.0002 s⁻¹ | kon (BMP10 [15]): 5.1e+07 M⁻¹ s⁻¹ | Kd (activin B [16]): 0.008 nM | koff (activin B [16]): 6.6e-05 s⁻¹ | kon (activin B [16]): 8.1e+06 M⁻¹ s⁻¹ | Kd (GDF3 [17]): 1.5 nM | koff (GDF3 [17]): 0.0022 s⁻¹ | kon (GDF3 [17]): 1.4e+06 M⁻¹ s⁻¹ | Kd (GDF8 [18]): 0.07 nM | koff (GDF8 [18]): 0.00026 s⁻¹ | kon (GDF8 [18]): 3.8e+06 M⁻¹ s⁻¹ | Kd (GDF11 [19]): 0.004 nM | koff (GDF11 [19]): 0.00017 s⁻¹ | kon (GDF11 [19]): 4.1e+07 M⁻¹ s⁻¹ | Kd (BMP6 [20]): 0.056 nM | koff (BMP6 [20]): 0.0074 s⁻¹ | kon (BMP6 [20]): 1.3e+08 M⁻¹ s⁻¹
B2: ActRIIB-Fc homodimer (Fc fusion)
chain: GRGEAETRECIYYNANWELERTNQSGLERCEGEQDKRLHCYASWRNSSGTIELVKKGCWLDDFNCYDRQECVATEENPQVYFCCCEGNFCNERFTHLPEAGGPEVTYEPPPTAPTG[gap - human IgG1 Fc and a few adjoining residues]

IC50, A204 CAGA12 reporter gene assay (activin A [1]): 1.52 nM | IC50, A204 CAGA12 reporter gene assay (BMP10 [2]): 12.6 nM | IC50, A204 CAGA12 reporter gene assay (activin B [3]): 0.11 nM | IC50, A204 CAGA12 reporter gene assay (GDF11 [4]): 17.9 nM
B3: ActRIIB(F82T-N83R)-G1Fc (Fc fusion)
chain: GRGEAETRECIYYNANWELERTNQSGLERCEGEQDKRLHCYASWRNSSGTIELVKKGCWLDDTRCYDRQECVATEENPQVYFCCCEGNFCNERFTHLPEAGGPEVTYEPPPTAPTG[gap - human IgG1 Fc and a few adjoining residues]
modifications: Homodimeric Fc fusion; one copy of the chain given

IC50, A204 CAGA12 reporter gene assay (activin A [1]): > 10 nM | IC50, A204 CAGA12 reporter gene assay (BMP10 [2]): > 100 nM | IC50, A204 CAGA12 reporter gene assay (activin B [3]): 0.07 nM | IC50, A204 CAGA12 reporter gene assay (GDF8 [21]): 5.76 nM | IC50, A204 CAGA12 reporter gene assay (GDF11 [4]): 0.24 nM
B4: ActRIIB(L79H)-G1Fc (Fc fusion)
chain: GRGEAETRECIYYNANWELERTNQSGLERCEGEQDKRLHCYASWRNSSGTIELVKKGCWHDDFNCYDRQECVATEENPQVYFCCCEGNFCNERFTHLPEAGGPEVTYEPPPTAPTG[gap - human IgG1 Fc and a few adjoining residues]
modifications: Homodimeric Fc fusion; one copy of the chain given

IC50, A204 CAGA12 reporter gene assay (activin A [1]): 1.32 nM | IC50, A204 CAGA12 reporter gene assay (BMP10 [2]): 0.53 nM | IC50, A204 CAGA12 reporter gene assay (activin B [3]): 0.09 nM
B5: ActRIIB(F82K-N83R)-G1Fc (Fc fusion)
chain: GRGEAETRECIYYNANWELERTNQSGLERCEGEQDKRLHCYASWRNSSGTIELVKKGCWLDDKRCYDRQECVATEENPQVYFCCCEGNFCNERFTHLPEAGGPEVTYEPPPTAPTG[gap - human IgG1 Fc and a few adjoining residues]
modifications: Homodimeric Fc fusion; one copy of the chain given

IC50, A204 CAGA12 reporter gene assay (BMP10 [2]): > 100 nM | IC50, A204 CAGA12 reporter gene assay (activin B [3]): 0.1 nM | IC50, A204 CAGA12 reporter gene assay (GDF11 [4]): > 100 nM
B6: ActRIIB(L79H-F82K)-G1Fc (Fc fusion)
chain: GRGEAETRECIYYNANWELERTNQSGLERCEGEQDKRLHCYASWRNSSGTIELVKKGCWHDDKNCYDRQECVATEENPQVYFCCCEGNFCNERFTHLPEAGGPEVTYEPPPTAPTG[gap - human IgG1 Fc and a few adjoining residues]

IC50, A204 CAGA12 reporter gene assay (activin A [1]): 1.67 nM | IC50, A204 CAGA12 reporter gene assay (BMP10 [2]): 13.2 nM | IC50, A204 CAGA12 reporter gene assay (activin B [3]): 0.08 nM | IC50, A204 CAGA12 reporter gene assay (GDF11 [4]): 9.95 nM
B7: ActRIIB(F82I-N83R)-G1Fc (Fc fusion)
chain: GRGEAETRECIYYNANWELERTNQSGLERCEGEQDKRLHCYASWRNSSGTIELVKKGCWLDDIRCYDRQECVATEENPQVYFCCCEGNFCNERFTHLPEAGGPEVTYEPPPTAPTG[gap - human IgG1 Fc and a few adjoining residues]
modifications: Homodimeric Fc fusion; one copy of the chain given
